Experimental data reported in PubChem BioAssay AID1159614 (National Center for Advancing Translational Sciences (NCATS), 2016).
The whole screen tested about 45,000 compounds, of which about 65 (0.1%) were called active. Calls follow the shape of the dose curve; as a rule, active = well fitted activation curve with a large enough effect; inconclusive = small, poorly fitted or top-dose-only effect; inactive = no such curve, though single readings can be large or run the other way. Some of the results follow.

Molecular target: Galactocerebrosidase (Homo sapiens) (UniProt P54803)
Sequence of UniProt P54803 (P54803 whole entry, looked up): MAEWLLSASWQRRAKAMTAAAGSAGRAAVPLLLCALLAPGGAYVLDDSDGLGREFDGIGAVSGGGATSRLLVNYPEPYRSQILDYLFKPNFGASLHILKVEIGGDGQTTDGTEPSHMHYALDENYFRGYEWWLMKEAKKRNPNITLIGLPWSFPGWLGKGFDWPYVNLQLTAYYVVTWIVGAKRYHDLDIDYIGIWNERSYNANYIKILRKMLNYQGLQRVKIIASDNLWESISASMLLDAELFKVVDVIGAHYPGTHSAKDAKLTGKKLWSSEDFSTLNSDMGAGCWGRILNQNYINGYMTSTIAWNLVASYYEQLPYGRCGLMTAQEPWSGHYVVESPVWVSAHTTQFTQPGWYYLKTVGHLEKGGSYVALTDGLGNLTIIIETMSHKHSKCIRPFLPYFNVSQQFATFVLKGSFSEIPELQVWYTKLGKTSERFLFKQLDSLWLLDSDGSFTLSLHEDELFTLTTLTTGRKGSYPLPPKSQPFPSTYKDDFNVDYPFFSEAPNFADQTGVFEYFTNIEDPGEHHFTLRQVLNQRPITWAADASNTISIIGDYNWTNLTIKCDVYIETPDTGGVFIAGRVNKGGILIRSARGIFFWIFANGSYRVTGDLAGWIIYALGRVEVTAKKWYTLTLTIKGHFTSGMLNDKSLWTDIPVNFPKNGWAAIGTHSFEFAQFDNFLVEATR
Assay: A Novel Cell-Based Assay to Identify Small Molecules for B -Galactocerebrosidase; also: 0% is about no effect; nearly all actives have a fitted effect of over 65% in size
Conditions: 145M-Twi-hGALC-G270D cells, HMU-beta-Gal fluorescence, 48 h; series mostly up to 57.5 µM; activation: at the top concentration
Summary of the method: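 qHTS, 1536-well; 145M-Twi-hGALC-G270D cells (WT line also made) in DMEM/F12 + 10% FBS; compound incubation on live cells; HMU-β-gal 0.1 mM final, pH 5.2, NaTC; carbonate stop; fluorescence increase = enhanced residual activity.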

activation, inactive:
O=C(Nc1ccc(F)cc1F)C1CCCN1S(=O)(=O)c1cccc2nsnc12 (centres undefined) -12.1%
COc1ccc(CCC(=O)NCc2ccc3c(c2)CCN3C(=O)c2cccc(C)c2)cc1 -8.69%
CCCOc1ccc(CNC(=O)C2CCN(c3nn4c(=O)cc(C)nc4s3)CC2)cc1 -7.24%
CCOC(=O)c1c(C)oc2nc(C)nc(NCCc3ccc(S(N)(=O)=O)cc3)c12 -12.9%
O=C(NCCc1ccccc1)c1cnc2sc(N3CCOCC3)nn2c1=O -18%
CCOc1ccccc1Nc1ccc2cc(S(=O)(=O)N3CCCCC3)ccc2n1 -23.9%
CCCSCCCNC(=O)CN1C(=O)COc2ccc(S(=O)(=O)N3CCCCCC3)cc21 1.01%
Cc1cccc(-c2nnc(SCCC(=O)O)o2)c1 19%
CCOC(=O)c1[nH]c(C)c(C(=O)NCc2ccc(F)cc2)c1C -16.9%
COc1cc(CNCCSc2nnnn2C)ccc1OCc1c(F)cccc1Cl -11.4%
O=[N+]([O-])c1ccc(C(c2sc3nc(-c4ccco4)nn3c2O)N2CCC3(CC2)OCCO3)cc1 (centres undefined) -8.34%
CC(C)c1ccc(OCC(=O)Nc2cc(-c3nc4ncccc4o3)ccc2Cl)cc1 4.09%
O=C(O)c1cccnc1Nc1cccc(C(F)(F)F)c1 -11.6%
COc1ccccc1CNC(=O)C(C)n1c(=O)cc(C(F)(F)F)c2c(C)nn(C)c21 (centres undefined) -18.3%
Cc1cccc(NC(=O)CN2C(=O)CCc3ccccc32)c1C -8.51%
CCOc1ccc(CCNC(=O)c2cnc3c(-c4ccccc4)c(C)nn3c2C)cc1OCC -20.8%
CCc1ccc(CNC(=O)C2CCN(c3nnc(-n4c(C)ccc4C)s3)CC2)cc1 -36.1%
COc1ccc(N2CCN(c3oc(/C=C/c4cccc(OC)c4)nc3C#N)CC2)cc1 -15.3%
CCCCC(=O)Nc1ccc(OCc2cc(=O)n3ccc(C)cc3n2)cc1 -10.8%
O=c1[nH]c2cc(C(F)(F)F)c(N3CCOCC3)cc2n(CP(=O)(O)O)c1=O -14.3%
COc1ccc(C(Cl)=C(c2ccc(OC)cc2)c2ccc(OC)cc2)cc1 -1.85%
CCCCN(CCCC)c1nc(-c2ccccc2)nc2ccccc12 2.91%
COc1cc(C2CC(=O)Nc3cc4c(cc32)OCCO4)cc(OC)c1O (centres undefined) -5.29%
Nc1ccn(C2CO[C@H](CO)O2)c(=O)n1 (some centres undefined) 5.69%
COc1ccc(NC(=O)C2CCCN2S(=O)(=O)c2ccc3c(c2)CCCC(=O)N3)cc1Cl (centres undefined) 1.67%
CCOC(=O)c1c(N)sc2c1CCN(Cc1ccccc1)C2 -5.24%
Cc1oc(-c2cccc(Cl)c2)nc1CSCC(=O)O -19.1%
CCC(=O)Nc1ccc(C)cc1-c1nc2ccccc2n(Cc2ccccc2)c1=O -4.84%
CCN(C(=O)c1cc2c(Cl)nc3ccc(C)cc3c2s1)c1cc(OC)ccc1OC -10.5%
COc1ccccc1C(=O)Nc1c(C(=O)Nc2ccc(C)cc2)oc2ccccc12 2.64%
CC(=O)Oc1ccc2c(c1)CC[C@@H]1[C@@H]2CC[C@]2(C)[C@@H](O)CC[C@@H]12 -12.6%
CC1(c2ccccc2)CC(C)(C)N(C(=O)c2ccccc2Cl)c2ccccc21 (centres undefined) -8.39%
O=C(Nc1ccc2nn(-c3ccc(Cl)cc3)nc2c1)c1cc2ccccc2o1 -10.7%
Cc1ccccc1Nc1c(-c2ccc(N3CCOCC3)cc2)nc2ccc(Cl)cn12 -10.1%
Cc1ccccc1NC(=O)c1c(NC(=O)c2cccs2)sc2c1CCC(C)C2 (centres undefined) -6.09%
N#Cc1nc(/C=C/c2ccc(F)cc2)oc1NC1CCCCC1 -0.726%
COc1ccc(C(=O)NCC(c2ccco2)S(=O)(=O)c2cccs2)cc1 (centres undefined) -18.3%
Cc1cccc(NC(=O)c2c(N)sc3c2CCC(C)C3)c1 (centres undefined) -19.2%
CCc1cccc(C)c1NS(=O)(=O)c1ccc(-c2cc(C)no2)s1 -11.9%
COc1ccc(-c2cccc(NS(=O)(=O)c3cc(C)ccc3OC)c2)nn1 -44.2%
Cc1c(F)cc2c(=O)c(C(=O)O)cn3c2c1CCC3C (centres undefined) -22.3%
CCOC(=O)c1cc(-c2ccccc2)n(CCC(=O)NCCc2ccc(OC)c(OC)c2)c1C -13%
COc1ccc(-c2nc3cc(NC(=O)c4cc5ccccc5o4)ccc3o2)cc1 -9.7%
COc1ccc(N(C)C(=O)C2CCN(S(=O)(=O)c3cc(Br)cc4c3N(C(C)=O)CC4)CC2)cc1 8.46%
Cc1ccc(OCc2cc(=O)n3ccsc3n2)c(NC(=O)c2ccco2)c1 2.69%
Cc1cccc(OCC(=O)Nc2ccccc2OCc2cc(=O)n3cc(C)ccc3n2)c1 1.8%
O=C(Nc1ccc2nc(SCC(=O)N3CCOCC3)sc2c1)c1ccccc1Cl -1.42%
CCn1ccc2cc(S(=O)(=O)N3CCC(C(=O)NCc4ccc(F)cc4)CC3)ccc21 -10.1%
Cc1ccc(NCc2cccn2-c2nnc(N3CCC(C(=O)NCc4ccc(F)cc4)CC3)s2)cc1 -30.3%
Cc1ccn2c(Nc3ccccc3C)c(-c3ccccc3)nc2c1 -7.63%
COc1cccc(NC(=O)Cn2c(=O)n(Cc3ccco3)c(=O)c3cc(OC)c(OC)cc32)c1 -12.4%
O=C(Cn1c(=O)n2nc(-c3cccc(F)c3)nc2c2ccccc21)NCc1ccc(Cl)cc1 -11.2%
CN(C)c1ccc(CNC(=O)c2sc3ncccc3c2-n2cccc2)cc1 -30.7%
CC1CCN(c2nc(-c3ccc(Br)cc3)nc3ccccc23)CC1 -16.4%
Cc1cc(C)cc(NC(=O)CCN2C(=O)c3ccccc3Sc3ncccc32)c1 8.79%
COc1ccccc1CNC(=O)CS(=O)(=O)Cc1nc(-c2ccccc2C)oc1C -3.59%
CSc1ccc(CNC(=O)Cn2ccc3cc(S(=O)(=O)N4CCCC4)ccc32)cc1 -7.39%
CC(C)CCNC(=O)CSc1nc2ccccc2nc1Cc1ccc(Cl)cc1 -18%
CN(C)c1ccc(C(=O)NCc2ccc3c(c2)CCN3C(=O)c2ccccc2)cc1 -13.5%
COc1cccc(CNC(=O)CN2C(=O)CSc3ccc(S(=O)(=O)N4CCCC4)cc32)c1 -19.8%
COCCn1c(C)cc(O)c(C(c2ccc(Cl)cc2)N2CCCCC2)c1=O (centres undefined) -24.7%
Cc1cc(C)c(NC(=O)CN2C(=O)CCSc3ccc(S(=O)(=O)N4CCCC4)cc32)c(C)c1 -27.3%
COc1ccc(C2C(=O)N(C3CCCCC3)CC(=O)N2C2CCCCC2)cc1 (centres undefined) -10.3%
CC1CCCCN1CCCNC(=O)Cn1ncc2c3ccccc3n(Cc3ccccc3F)c2c1=O (centres undefined) -6.23%
